The list shows a part of the results.
Experiments:
Assay in all cases: glycan array binding signal (z-score within array); higher = stronger binding
Settings in all cases: glycan notation: IUPAC condensed, linker removed
[1] = target: Gal(b1-4)GlcNAc(b1-6)GalNAc
Summary of the method: (§1)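 Glycan array data came from 3228 arrays in the Consortium for Functional Glycomics database, and only arrays with an available protein sequence were kept. Glycan names were put into IUPAC-condensed notation, and columns mapping to the same glycan were averaged. The binding signal is a within-array Z-score, averaged across arrays of one protein sequence run at different concentrations or buffers and across linkers. A negative Z-score can be read as non-binding.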

[2] = target: Gal(b1-4)GlcNAc(b1-6)[Gal(b1-3)]GalNAc
Summary of the method: as §1

[3] = target: Gal(b1-4)GlcNAc(b1-6)[Gal(b1-3)]GlcNAc
Summary of the method: as §1

Gal3S(b1-3)GalNAc = target: Gal3S(b1-3)GalNAc
Summary of the method: as §1

Gal3S(b1-3)GlcNAc = target: Gal3S(b1-3)GlcNAc
Summary of the method: as §1

[4] = target: Gal3S(b1-3)[Fuc(a1-4)]GlcNAc
Summary of the method: as §1

Gal3S(b1-4)Glc = target: Gal3S(b1-4)Glc
Summary of the method: as §1

Gal3S(b1-4)Glc6S = target: Gal3S(b1-4)Glc6S
Summary of the method: as §1

Gal3S(b1-4)GlcNAc = target: Gal3S(b1-4)GlcNAc
Summary of the method: as §1

Gal3S(b1-4)GlcNAc6S = target: Gal3S(b1-4)GlcNAc6S
Summary of the method: as §1

Gal3S6S(b1-4)GlcNAc = target: Gal3S6S(b1-4)GlcNAc
Summary of the method: as §1

Gal3S6S(b1-4)GlcNAc6S = target: Gal3S6S(b1-4)GlcNAc6S
Summary of the method: as §1

Gal4S(b1-4)GlcNAc = target: Gal4S(b1-4)GlcNAc
Summary of the method: as §1

Gal4S6S(b1-4)GlcNAc = target: Gal4S6S(b1-4)GlcNAc
Summary of the method: as §1

Gal6S(b1-4)Glc = target: Gal6S(b1-4)Glc
Summary of the method: as §1

Gal6S(b1-4)Glc6S = target: Gal6S(b1-4)Glc6S
Summary of the method: as §1

Gal6S(b1-4)GlcNAc = target: Gal6S(b1-4)GlcNAc
Summary of the method: as §1

GalNAc(a1-3)Gal = target: GalNAc(a1-3)Gal
Summary of the method: as §1

GalNAc(a1-3)GalNAc = target: GalNAc(a1-3)GalNAc
Summary of the method: as §1

[5] = target: GalNAc(b1-3)Gal(a1-4)Gal(b1-4)GlcNAc
Summary of the method: as §1

GalNAc(b1-4)GlcNAc = target: GalNAc(b1-4)GlcNAc
Summary of the method: as §1

Glc(a1-4)Glc = target: Glc(a1-4)Glc
Summary of the method: as §1

Glc(a1-6)Glc(a1-6)Glc = target: Glc(a1-6)Glc(a1-6)Glc
Summary of the method: as §1

Glc(b1-4)Glc = target: Glc(b1-4)Glc
Summary of the method: as §1

Glc(b1-6)Glc = target: Glc(b1-6)Glc
Summary of the method: as §1

GlcA(b1-3)Gal = target: GlcA(b1-3)Gal
Summary of the method: as §1

GlcA(b1-6)Gal = target: GlcA(b1-6)Gal
Summary of the method: as §1

[6] = target: GlcNAc(a1-3)Gal(b1-4)GlcNAc
Summary of the method: as §1

[7] = target: GlcNAc(a1-6)Gal(b1-4)GlcNAc
Summary of the method: as §1

[8] = target: GlcNAc(b1-2)Gal(b1-3)GlcNAc
Summary of the method: as §1

[9] = target: GlcNAc(b1-2)Man(a1-3)[GlcNAc(b1-2)Man(a1-6)]Man(b1-4)GlcNAc(b1-4)GlcNAc
Summary of the method: as §1

GlcNAc(b1-3)Gal = target: GlcNAc(b1-3)Gal
Summary of the method: as §1

[10] = target: GlcNAc(b1-3)Gal(b1-3)GalNAc
Summary of the method: as §1

GlcNAc(b1-3)Gal(b1-4)Glc = target: GlcNAc(b1-3)Gal(b1-4)Glc
Summary of the method: as §1

[11] = target: GlcNAc(b1-3)Gal(b1-4)GlcNAc
Summary of the method: as §1

[12] = target: GlcNAc(b1-3)Gal(b1-4)GlcNAc(b1-3)Gal(b1-4)GlcNAc
Summary of the method: as §1

GlcNAc(b1-3)GalNAc = target: GlcNAc(b1-3)GalNAc
Summary of the method: as §1

[13] = target: GlcNAc(b1-3)[GlcNAc(b1-4)][GlcNAc(b1-6)]GlcNAc
Summary of the method: as §1

[14] = target: GlcNAc(b1-3)[GlcNAc(b1-6)]Gal(b1-4)GlcNAc
Summary of the method: as §1

[15] = target: GlcNAc(b1-3)[GlcNAc(b1-6)]GlcNAc
Summary of the method: as §1

[16] = target: GlcNAc(b1-4)Gal(b1-4)GlcNAc
Summary of the method: as §1

[17] = target: GlcNAc(b1-4)GlcNAc(b1-4)GlcNAc
Summary of the method: as §1

[18] = target: GlcNAc(b1-4)GlcNAc(b1-4)GlcNAc(b1-4)GlcNAc(b1-4)GlcNAc
Summary of the method: as §1

[19] = target: GlcNAc(b1-4)GlcNAc(b1-4)GlcNAc(b1-4)GlcNAc(b1-4)GlcNAc(b1-4)GlcNAc
Summary of the method: as §1

[20] = target: GlcNAc(b1-4)[GlcNAc(b1-6)]GalNAc
Summary of the method: as §1

[21] = target: GlcNAc(b1-6)Gal(b1-4)GlcNAc
Summary of the method: as §1

GlcNAc(b1-6)GalNAc = target: GlcNAc(b1-6)GalNAc
Summary of the method: as §1

Kdn(a2-3)Gal(b1-3)GlcNAc = target: Kdn(a2-3)Gal(b1-3)GlcNAc
Summary of the method: as §1

Kdn(a2-3)Gal(b1-4)GlcNAc = target: Kdn(a2-3)Gal(b1-4)GlcNAc
Summary of the method: as §1

[22] = target: Man(a1-2)Man(a1-2)Man(a1-3)Man
Summary of the method: as §1

[23] = target: Man(a1-2)Man(a1-2)Man(a1-3)[Man(a1-2)Man(a1-3)[Man(a1-2)Man(a1-6)]Man(a1-6)]Man(b1-4)GlcNAc(b1-4)GlcNAc
Summary of the method: as §1

[24] = target: Man(a1-2)Man(a1-2)Man(a1-3)[Man(a1-2)Man(a1-6)[Man(a1-3)]Man(a1-6)]Man(b1-4)GlcNAc(b1-4)GlcNAc
Summary of the method: as §1

[25] = target: Man(a1-2)Man(a1-2)Man(a1-6)[Man(a1-3)]Man
Summary of the method: as §1

Man(a1-2)Man(a1-3)Man = target: Man(a1-2)Man(a1-3)Man
Summary of the method: as §1

[26] = target: Man(a1-2)Man(a1-3)[Man(a1-2)Man(a1-6)]Man
Summary of the method: as §1

[27] = target: Man(a1-2)Man(a1-3)[Man(a1-3)[Man(a1-6)]Man(a1-6)]Man(b1-4)GlcNAc(b1-4)GlcNAc
Summary of the method: as §1

[28] = target: Man(a1-2)Man(a1-3)[Man(a1-6)]Man(a1-6)[Man(a1-2)Man(a1-3)]Man(b1-4)GlcNAc(b1-4)GlcNAc
Summary of the method: as §1

Man(a1-3)[Man(a1-6)]Man = target: Man(a1-3)[Man(a1-6)]Man
Summary of the method: as §1

B1: IDGF2 (Drosophila melanogaster), Q9V3D4 (protein)
chain: MKAWIWFTFVACLFAASTEAASNLVCYYDSSSYTREGLGKLLNPDLEIALQFCSHLVYGYAGLRGENLQAYSMNENLDIYKHQFSEVTSLKRKYPHLKVLLSVGGDHDIDPDHPNKYIDLLEGEKVRQIGFIRSAYDLVKTYGFDGLDLAYQFPKNKPRKVHGDLGLAWKSIKKLFTGDFIVDPHAALHKEQFTALVRDVKDSLRADGFLLSLTVLPNVNSTWYFDIPALNGLVDFVNLATFDFLTPARNPEEADYSAPIYHPDGSKDRLAHLNADFQVEYWLSQGFPSNKINLGVATYGNAWKLTKDSGLEGVPVVPETSGPAPEGFQSQKPGLLSYAEICGKLSNPQNQFLKGNESPLRRVSDPTKRFGGIAYRPVDGQITEGIWVSYDDPDSASNKAAYARVKNLGGVALFDLSYDDFRGQCSGDKYPILRAIKYRLHHHHHH
[1]
  glycan array binding signal (z-score): -0.057
[2]
  glycan array binding signal (z-score): 0.086
[3]
  glycan array binding signal (z-score): -0.368
Gal3S(b1-3)GalNAc
  glycan array binding signal (z-score): -0.071
Gal3S(b1-3)GlcNAc
  glycan array binding signal (z-score): -0.165
[4]
  glycan array binding signal (z-score): 0.072
Gal3S(b1-4)Glc
  glycan array binding signal (z-score): 0.154
Gal3S(b1-4)Glc6S
  glycan array binding signal (z-score): 0.076
Gal3S(b1-4)GlcNAc
  glycan array binding signal (z-score): 0.235
Gal3S(b1-4)GlcNAc6S
  glycan array binding signal (z-score): -0.148
Gal3S6S(b1-4)GlcNAc
  glycan array binding signal (z-score): -0.015
Gal3S6S(b1-4)GlcNAc6S
  glycan array binding signal (z-score): -0.362
Gal4S(b1-4)GlcNAc
  glycan array binding signal (z-score): -0.393
Gal4S6S(b1-4)GlcNAc
  glycan array binding signal (z-score): -0.386
Gal6S(b1-4)Glc
  glycan array binding signal (z-score): 0.524
Gal6S(b1-4)Glc6S
  glycan array binding signal (z-score): -0.146
Gal6S(b1-4)GlcNAc
  glycan array binding signal (z-score): 0.196
GalNAc(a1-3)Gal
  glycan array binding signal (z-score): -0.259
GalNAc(a1-3)GalNAc
  glycan array binding signal (z-score): -0.398
[5]
  glycan array binding signal (z-score): -0.362
GalNAc(b1-4)GlcNAc
  glycan array binding signal (z-score): -0.336
Glc(a1-4)Glc
  glycan array binding signal (z-score): -0.125
Glc(a1-6)Glc(a1-6)Glc
  glycan array binding signal (z-score): -0.349
Glc(b1-4)Glc
  glycan array binding signal (z-score): 0.145
Glc(b1-6)Glc
  glycan array binding signal (z-score): -0.388
GlcA(b1-3)Gal
  glycan array binding signal (z-score): -0.559
GlcA(b1-6)Gal
  glycan array binding signal (z-score): -0.525
[6]
  glycan array binding signal (z-score): -0.102
[7]
  glycan array binding signal (z-score): 0.07
[8]
  glycan array binding signal (z-score): 0.063
[9]
  glycan array binding signal (z-score): -0.223
GlcNAc(b1-3)Gal
  glycan array binding signal (z-score): 0.066
[10]
  glycan array binding signal (z-score): -0.24
GlcNAc(b1-3)Gal(b1-4)Glc
  glycan array binding signal (z-score): -0.024
[11]
  glycan array binding signal (z-score): -0.38
[12]
  glycan array binding signal (z-score): -0.305
GlcNAc(b1-3)GalNAc
  glycan array binding signal (z-score): 0.032
[13]
  glycan array binding signal (z-score): -0.235
[14]
  glycan array binding signal (z-score): -0.522
[15]
  glycan array binding signal (z-score): -0.356
[16]
  glycan array binding signal (z-score): -0.376
[17]
  glycan array binding signal (z-score): -0.299
[18]
  glycan array binding signal (z-score): -0.511
[19]
  glycan array binding signal (z-score): -0.118
[20]
  glycan array binding signal (z-score): -0.349
[21]
  glycan array binding signal (z-score): -0.237
GlcNAc(b1-6)GalNAc
  glycan array binding signal (z-score): -0.197
Kdn(a2-3)Gal(b1-3)GlcNAc
  glycan array binding signal (z-score): -0.44
Kdn(a2-3)Gal(b1-4)GlcNAc
  glycan array binding signal (z-score): -0.485
[22]
  glycan array binding signal (z-score): -0.49
[23]
  glycan array binding signal (z-score): -0.586
[24]
  glycan array binding signal (z-score): -0.038
[25]
  glycan array binding signal (z-score): -0.514
Man(a1-2)Man(a1-3)Man
  glycan array binding signal (z-score): -0.128
[26]
  glycan array binding signal (z-score): -0.265
[27]
  glycan array binding signal (z-score): -0.427
[28]
  glycan array binding signal (z-score): 0.65
Man(a1-3)[Man(a1-6)]Man
  glycan array binding signal (z-score): -0.527

Reference: the supplement of paper PMC8728848
